Reference: the supplement of paper PMC4604168 (melanoma cell lines)
The list shows a part of the results. Single values are uncertain, as repeats are few or missing.

Experiments:
Experiment in all cases: cell count relative to DMSO control; melanoma cells; higher = more viable cells
Conditions in all cases: library dose: standard library concentration; 72 h
SkMel28 = tested on: SkMel28
SkMel2 = tested on: SkMel2
SkMel30 = tested on: SkMel30
SkMel5 = tested on: SkMel5
UACC257 = tested on: UACC257
UACC62 = tested on: UACC62
WM115 = tested on: WM115
WM1716 = tested on: WM1716
WM3526 = tested on: WM3526
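Further: cells treated in 1,536-well plates, then fixed and DAPI-stained, with nuclei counted from automated high-throughput microscope images.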

Compound	cell count (SkMel28) [%]	cell count (SkMel2) [%]	cell count (SkMel30) [%]	cell count (SkMel5) [%]	cell count (UACC257) [%]	cell count (UACC62) [%]	cell count (WM115) [%]	cell count (WM1716) [%]	cell count (WM3526) [%]
Cc1cc(Nc2cc(N3CCN(C)CC3)nc(/C=C/c3ccccc3)n2)n[nH]1 + COc1cc(N2CCC(N3CCN(C)CC3)CC2)ccc1Nc1ncc(Cl)c(Nc2ccccc2S(=O)(=O)C(C)C)n1 [NVP-TAE684] (first compound 0.2 µM, partner dose 0.4 µM)	34.7	61.2	101	73.1	84	76.3	40.3	75.1	77.8
Cn1c(=O)n(-c2ccc(C(C)(C)C#N)cc2)c2c3cc(-c4cnc5ccccc5c4)ccc3ncc21 + CCCCCCCCCCCC1=C(O)C(=O)C=C(O)C1=O [Embelin] (first compound 0.02 µM, partner dose 6 µM)	64.1	51	71.2	79.7	89.3	81	53.2	77.3	83.9
Cc1cn(-c2cc(NC(=O)c3ccc(C)c(Nc4nccc(-c5cccnc5)n4)c3)cc(C(F)(F)F)c2)cn1 [nilotinib] + O=C1NC(=O)/C(=C/c2ccc(-c3ccc(F)cc3O)o2)S1 [AS252424] (first compound 1 µM, partner dose 5 µM)	96.6	78	93.1	71.2	102	106	87.9	112	79.3
Cc1cc(Nc2cc(N3CCN(C)CC3)nc(/C=C/c3ccccc3)n2)n[nH]1 + c1cc(-c2cnn3cc(-c4ccc(OCCN5CCCCC5)cc4)cnc23)ccn1 [Dorsomorphin] (first compound 0.2 µM, partner dose 2 µM)	65.1	79.9	90	45	72.1	56.7	44.2	65.7	71.7
COc1ccc(C2=N[C@@H](c3ccc(Cl)cc3)[C@@H](c3ccc(Cl)cc3)N2C(=O)N2CCNC(=O)C2)c(OC(C)C)c1 [Nutlin-3] + Cc1cc([N+](=O)[O-])ccc1NS(=O)(=O)c1cc(Cl)ccc1Cl [FH535] (first compound 0.5 µM, partner dose 5 µM)	55	78.8	104	54.3	65	75.5	72.7	67.1	84
Cc1cn(-c2cc(NC(=O)c3ccc(C)c(Nc4nccc(-c5cccnc5)n4)c3)cc(C(F)(F)F)c2)cn1 [nilotinib] + N#Cc1c(O)c2c(-c3ccc(-c4ccccc4O)cc3)csc2[nH]c1=O [A769662] (first compound 1 µM, partner dose 10 µM)	107	99.9	106	73.9	103	97.4	105	97.1	93.2
COc1ccc(C2=N[C@@H](c3ccc(Cl)cc3)[C@@H](c3ccc(Cl)cc3)N2C(=O)N2CCNC(=O)C2)c(OC(C)C)c1 [Nutlin-3] + O=C1NC(=O)/C(=C/c2ccc(-c3ccc(F)cc3O)o2)S1 [AS252424] (first compound 0.5 µM, partner dose 5 µM)	67.5	72.1	111	73.3	91.6	73.5	84.2	92.5	76.5
CC(C)C[C@H](NC(=O)[C@H](Cc1ccccc1)NC(=O)c1cnccn1)B(O)O [Bortezomib] + Oc1cc(-c2nc(-c3ccccc3)[nH]c2-c2ccncc2)ccc1Cl [L779450] (first compound 0.005 µM, partner dose 1 µM)	35.3	43	39.3	36.5	89.1	41.8	24.2	16.5	31.1
Cn1c(=O)n(-c2ccc(C(C)(C)C#N)cc2)c2c3cc(-c4cnc5ccccc5c4)ccc3ncc21 + Oc1cc(-c2nc(-c3ccccc3)[nH]c2-c2ccncc2)ccc1Cl [L779450] (first compound 0.02 µM, partner dose 1 µM)	34.5	12.1	52.8	60.1	84.6	57	29.5	50.6	44.7
Cn1c(=O)n(-c2ccc(C(C)(C)C#N)cc2)c2c3cc(-c4cnc5ccccc5c4)ccc3ncc21 + c1cc(-c2cnn3cc(-c4ccc(OCCN5CCCCC5)cc4)cnc23)ccn1 [Dorsomorphin] (first compound 0.02 µM, partner dose 2 µM)	31.2	50.2	65.6	48.9	75	57.5	51.3	64.2	59.4
Cc1cn(-c2cc(NC(=O)c3ccc(C)c(Nc4nccc(-c5cccnc5)n4)c3)cc(C(F)(F)F)c2)cn1 [nilotinib] + COc1ccc2c(c1)CCC1C2CCC2(C)C(NCCCCCCN3C(=O)C=CC3=O)CCC12 [U73122] (first compound 1 µM, partner dose 2 µM)	96.2	98.7	93.9	61	110	60.1	74.1	69.6	76.9
Cc1cn(-c2cc(NC(=O)c3ccc(C)c(Nc4nccc(-c5cccnc5)n4)c3)cc(C(F)(F)F)c2)cn1 [nilotinib] + O=c1cc(-c2cccc3c2Sc2ccccc2S3)oc(N2CCOCC2)c1 [KU55933] (first compound 1 µM, partner dose 5 µM)	83	89.3	90.6	67.1	106	75.9	78.9	86.6	70.3
Cc1cn(-c2cc(NC(=O)c3ccc(C)c(Nc4nccc(-c5cccnc5)n4)c3)cc(C(F)(F)F)c2)cn1 [nilotinib] + O=C(O)C(=O)Nc1sc2c(c1C(=O)O)CCNC2 [TCS401] (first compound 1 µM, partner dose 8.33333 µM)	122	121	106	52.8	93.4	77.5	108	90.1	85
COc1ccc(C2=N[C@@H](c3ccc(Cl)cc3)[C@@H](c3ccc(Cl)cc3)N2C(=O)N2CCNC(=O)C2)c(OC(C)C)c1 [Nutlin-3] + N#Cc1c(O)c2c(-c3ccc(-c4ccccc4O)cc3)csc2[nH]c1=O [A769662] (first compound 0.5 µM, partner dose 10 µM)	89.1	105	113	87.4	98.1	66	94.6	87.6	96.3
COc1ccc(C2=N[C@@H](c3ccc(Cl)cc3)[C@@H](c3ccc(Cl)cc3)N2C(=O)N2CCNC(=O)C2)c(OC(C)C)c1 [Nutlin-3] + COc1ccc2c(c1)CCC1C2CCC2(C)C(NCCCCCCN3C(=O)C=CC3=O)CCC12 [U73122] (first compound 0.5 µM, partner dose 2 µM)	64.4	86.8	88	60.8	76.4	60.5	60.1	60.5	82
Cc1cn(-c2cc(NC(=O)c3ccc(C)c(Nc4nccc(-c5cccnc5)n4)c3)cc(C(F)(F)F)c2)cn1 [nilotinib] + COc1cc(N2CCC(N3CCN(C)CC3)CC2)ccc1Nc1ncc(Cl)c(Nc2ccccc2S(=O)(=O)C(C)C)n1 [NVP-TAE684] (first compound 1 µM, partner dose 0.4 µM)	78.6	76	90.2	62	92.1	90.8	93.6	84.7	66
Cn1c(=O)n(-c2ccc(C(C)(C)C#N)cc2)c2c3cc(-c4cnc5ccccc5c4)ccc3ncc21 + CC(C)CCN1c2nc(Nc3cc(F)c(O)c(F)c3)ncc2N(C)C(=O)C1C [BID1870] (first compound 0.02 µM, partner dose 1 µM)	41.5	50.2	77.7	53.6	99.2	78.8	66.6	74.2	61.5
COc1ccc(C2=N[C@@H](c3ccc(Cl)cc3)[C@@H](c3ccc(Cl)cc3)N2C(=O)N2CCNC(=O)C2)c(OC(C)C)c1 [Nutlin-3] + COc1cc(N2CCC(N3CCN(C)CC3)CC2)ccc1Nc1ncc(Cl)c(Nc2ccccc2S(=O)(=O)C(C)C)n1 [NVP-TAE684] (first compound 0.5 µM, partner dose 0.4 µM)	62	61.4	119	57.2	64.4	51	61.5	70.3	76.5
COc1ccc(C2=N[C@@H](c3ccc(Cl)cc3)[C@@H](c3ccc(Cl)cc3)N2C(=O)N2CCNC(=O)C2)c(OC(C)C)c1 [Nutlin-3] + Cn1cc(/C=C2\C(=O)Nc3cccnc32)c2ccccc21 [GW441756] (first compound 0.5 µM, partner dose 2 µM)	50.9	95.4	94.8	56.6	70.9	59.2	92.9	82.8	86.5
Cc1cc(Nc2cc(N3CCN(C)CC3)nc(/C=C/c3ccccc3)n2)n[nH]1 + O=C1NC(=O)/C(=C/c2ccc(-c3ccc(F)cc3O)o2)S1 [AS252424] (first compound 0.2 µM, partner dose 5 µM)	85.7	91.8	94	70.8	91	75.4	88.5	92.9	79.5
Cc1cc(Nc2cc(N3CCN(C)CC3)nc(/C=C/c3ccccc3)n2)n[nH]1 + CCN(CC)CCCCNc1ncc2cc(-c3cc(OC)cc(OC)c3)c(NC(=O)NC(C)(C)C)nc2n1 [PD173074] (first compound 0.2 µM, partner dose 0.5 µM)	63.4	114	112	79.6	102	67.6	80.2	99	104
Cn1c(=O)n(-c2ccc(C(C)(C)C#N)cc2)c2c3cc(-c4cnc5ccccc5c4)ccc3ncc21 + CCc1ccc(CCOc2ccc(CC3SC(=O)NC3=O)cc2)nc1 [pioglitazone] (first compound 0.02 µM, partner dose 10 µM)	66.2	72.2	73.1	88.9	83.3	91.2	69.5	91.1	81.6
